Experimental data taken from PMC12136788.
The other results are listed elsewhere or left out.

T1: UNK ZnF1-6 (called full-length) (human, UniProt Q9C0B0 30-357)
T1 sequence: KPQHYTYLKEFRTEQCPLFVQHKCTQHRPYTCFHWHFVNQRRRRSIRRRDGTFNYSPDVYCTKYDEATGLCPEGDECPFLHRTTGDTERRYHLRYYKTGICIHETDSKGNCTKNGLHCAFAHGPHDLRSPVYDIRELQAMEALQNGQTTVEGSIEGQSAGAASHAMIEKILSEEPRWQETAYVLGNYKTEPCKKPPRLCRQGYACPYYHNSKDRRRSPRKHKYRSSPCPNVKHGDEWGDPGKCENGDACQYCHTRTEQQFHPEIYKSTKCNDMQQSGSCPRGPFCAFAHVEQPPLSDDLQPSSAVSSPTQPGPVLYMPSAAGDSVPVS

B1: chr10:29523788:29523889:-|CDS|ENSG00000197321|unk|FALSE|unique (ssRNA)
RNA: GGGAGUUCUACAGUCCGACGAUCAAUGCAAGUGCCACUGACUAUAAGUUUUCUUCUUCAAUAGAAAAUUCGGACUCUCCAGUUAGAAGCAUUCUGAAAUCGCAAGCUUGGCAGCCUUUGGUAGAGGGUAGCGAGAACAAGGGACAACAGAGGAUUGAGCAUCA
B2: chr8:97276997:97277102:-|CDS|ENSG00000180543|unk|FALSE|unique (ssRNA)
RNA: GGGAGUUCUACAGUCCGACGAUCAUCCCGGGCUUCUGGGGGCAAGCAUUUCAGAACCAUCCCCAGCUAGCAUCCUUUCUGAAUAGCCAAGAGAAAGAGGUACUGAGCUACUUAAACAGCUUGGAAGUGGAAGAGCUCGGCCUUCAACAGAGGAUUGAGCAUCA
B3: chrX:120627021:120627135:-|CDS|ENSG00000171155|unk|FALSE|unique (ssRNA)
RNA: GGGAGUUCUACAGUCCGACGAUCUUGAAGGGUGUGAUGCUUGGAAGCAUUUUCUGUGCUUUGAUCACUAUGCUAGGACACAUUAGGAUUGGUCAUGGAAAUAGAAUGCACCACCAUGAGCAUCAUCACCUACAAGCUCCUAACCAACAGAGGAUUGAGCAUCA
B4: ENSG00000197321:stop:overlap|stop_codon|ENSG00000197321|stop_codon|NA|stop_codon (ssRNA)
RNA: GGGAGUUCUACAGUCCGACGAUCAGUUCCAUGAGGGGGAUGCCUAUGUGGUCAAGUGGAAGUUCAUGGUGAGCACGGCAGGUUAGUGAGCGCUUGUGGUUUUUUCCAGCUGAAAGAGGCUGGCCCGGCAGCCCUGCGGGAGCCCAACAGAGGAUUGAGCAUCA
B5: ENSG00000124766:be:win_2451|3pUTR|ENSG00000124766|bound_else_gene|NA|bound_elsewhere_windowed (ssRNA)
RNA: GGGAGUUCUACAGUCCGACGAUCAAAAAAGAAAAAAAAAAGAUUUUUUUCUUCUCUUAAUCGGAAUCGUGAUGGUGUUGGAUUAUUUCAAUGGUGGGGUUAAUAUAGCAUGUUAUCCUGUCUAUCUUUUAAAGAUUUCUGUAUCAACAGAGGAUUGAGCAUCA
B6: ENSG00000107863:be:win_2151|CDS|ENSG00000107863|bound_else_gene|NA|bound_elsewhere_windowed (ssRNA)
RNA: GGGAGUUCUACAGUCCGACGAUCUUUACAAGAGGCUGAAACUGAGCAAUCAGAUACUUUAGAUAAUAAAGAAGCUGUCAUCCUAAGGGAAAAACCUCCAUCUGGACGCCAGACACCGCAGCCUUUAAGGCAUCAGUCUUACAUCAACAGAGGAUUGAGCAUCA
B7: chr5:10971835:10973713:-|three_prime_utr|ENSG00000169862|control|control|control (ssRNA)
RNA: GGGAGUUCUACAGUCCGACGAUCGCAUGUGCAUGCAUACCACAAGACAUUUCUUUCUGUUUUGUUUUUUUCUCCUGCAAAUUUAGUUUGUUAAAGCCUGUUCCAUAGGAAGGCUGUGAUAACCAGUAAGGAAAUAUUAAGAGCCAACAGAGGAUUGAGCAUCA
B8: chr2:135868693:135868794:-|CDS|ENSG00000076003|msi1|FALSE|unique (ssRNA)
RNA: GGGAGUUCUACAGUCCGACGAUCCCCAGAGCUUGUGAGCGGAACUUUUCUGUGCUUGGACUGUCAGACAGUGAUCAGGGAUGUAGAACAGCAGUUCAAAUACACACAGCCAAACAUCUGCCGAAAUCCAGUUUGUGCCAACAGCAACAGAGGAUUGAGCAUCA
B9: chr2:1633824:1633925:-|3pUTR|ENSG00000130508|msi1|total|mutant (ssRNA)
RNA: GGGAGUUCUACAGUCCGACGAUCAUUUAAUUCUUUUAAAAUGAAAAAUUGGUGCUACUAUUAAAUUGCACAGUUGAAUCAUUCCGGCGCCUAAAUUGAUUUUGCCUCCCAACACCAUUUCUUUUUAAAUAAAGCAGGAUACCUCAACAGAGGAUUGAGCAUCA
B10: chr2:32415991:32416109:+|CDS|ENSG00000115760|unk|total|mutant (ssRNA)
RNA: GGGAGUUCUACAGUCCGACGAUCUGACAUUUCUACUCUUGGACACCUGGUAAUAACCACUCAGGGAGGAUAUGUAAAAAUACCCGAUCUUUCAAACUUUGAAAUUUUGGCCAAAGUGGAGCCUCCCAAAAAGGAGGGCACUGACAACAGAGGAUUGAGCAUCA
B11: ENSG00000136451:be:win_4251|3pUTR|ENSG00000136451|bound_else_gene|NA|bound_elsewhere_windowed (ssRNA)
RNA: GGGAGUUCUACAGUCCGACGAUCCUAAACAGUUGUAUUAGAUAAUCCUUAAAUCUGACAUCCAGCCUGUUACGCUCUAGGGCUCGCUGCUUGGCCUGCGUUUGCUUUUUAUUGUGUAUCCGUUCCCCUCCUACGGUGUGCUCCCAACAGAGGAUUGAGCAUCA
B12: chr8:30995801:30996592:-|three_prime_utr|ENSG00000172733|control|control|control (ssRNA)
RNA: GGGAGUUCUACAGUCCGACGAUCUUGUUUUUUUUAAUUCAUCAAGCCUUUCGUUUUCAAACCACCAUUUGUCAGCCUUGAGGUAGAGAGACAUAUAGAUUUGAAAAUACUUUCUUAAGAGAUCAUGUAACUAUAUAACUCUGACAACAGAGGAUUGAGCAUCA
B13: chr1:205657850:205659233:-|three_prime_utr|ENSG00000158715|control|control|control (ssRNA)
RNA: GGGAGUUCUACAGUCCGACGAUCACUUCCAGCACAUUGGGGUGGAGGGCCUGCCUCACUGGGUCCCAGCUCCCCGCUCCUGUUAGCCCCAUGGGGCUGCCGGGCUGGCCGCCAGUUUCUGUUGCUGCCAAAGUAAUGUGGCUCCAACAGAGGAUUGAGCAUCA
B14: chr11:35229396:35229958:+|3pUTR|ENSG00000026508|msi1|FALSE|unique (ssRNA)
RNA: GGGAGUUCUACAGUCCGACGAUCAUAUGUAUUCCUGAUCGCCAACCUUUCCCCCACCAGCUAAGGACAUUUCCCAGGGUUAAUAGGGCCUGGUCCCUGGGAGGAAAUUUGAAUGGGUCCAUUUUGCCCUUCCAUAGCCUAAUCCAACAGAGGAUUGAGCAUCA

biological target: T1, UNK ZnF1-6 (called full-length); experiment: nsRBNS (natural sequence RNA bind-n-seq); RBNS binding buffer (assumed for nsRBNS): 25 mM Tris pH 7.5, 150 mM KCl, 3 mM MgCl2, 0.01% Triton X-100, 500 ug/ml BSA, 20 U/ml SUPERase-In, 4 C; UNK is unkempt and MSI1 is Musashi-1; names of the RNAs are library labels; protein concentration not given here; high values mean tight binding

Going from B1 to B2, the binding signal falls from 0.87 enrichment R to 0.781 enrichment R.

First: B3
Second: B4
The binding signal of the first is lower: 0.442 enrichment R for the first, 0.515 enrichment R for the second.

First: B5
Second: B6
The binding signal of the first is higher: 0.786 enrichment R for the first, 0.636 enrichment R for the second.

Compared with B7, B8 is higher in binding signal: 0.511 enrichment R for the first, 0.852 enrichment R for the second.

Going from B9 to B10, the binding signal falls from 0.761 enrichment R to 0.504 enrichment R.

First: B11
Second: B12
The binding signal of the first is lower: 0.615 enrichment R for the first, 0.67 enrichment R for the second.

Going from B13 to B14, the binding signal falls from 0.783 enrichment R to 0.772 enrichment R.
